Columns and labels:
[1] = test system: Phytophthora infestans; experiment: Fungicidal activity against Phytophthora infestans infected on compound pre-treated tomato leaf pieces assessed as control of disease or pathogen at 200 ppm measured after 5 to 14 days by leaf-piece assay
[2] = test system: Fusarium graminearum; experiment: Fungicidal activity against Fusarium graminearum grown on compound supplemented artificial media assessed as control of disease or pathogen at 2 ppm measured after 5 to 14 days by artificial media assay
[3] = test system: Fusarium graminearum; experiment: Fungicidal activity against Fusarium graminearum grown on compound supplemented artificial media assessed as control of disease or pathogen at 20 ppm measured after 5 to 14 days by artificial media assay
[4] = test system: Phytophthora infestans; experiment: Fungicidal activity against Phytophthora infestans infected on compound pre-treated tomato leaf pieces assessed as control of disease or pathogen at 60 ppm measured after 5 to 14 days by leaf-piece assay

SMILES: COC(=O)n1cc(-c2ocnc2Br)c2ccccc21
- Activity [1]: 0%
- Activity [2]: 0%
- Activity [3]: 0%
- Activity [4]: 0%

SMILES: COCC(=O)n1cc(-c2ocnc2Br)c2ccccc21
- Activity [1]: 0%
- Activity [2]: 0%
- Activity [3]: 99%
- Activity [4]: 0%

SMILES: Brc1ncoc1-c1cn(CC2CC2)c2ccccc12
- Activity [1]: 27%
- Activity [2]: 0%
- Activity [3]: 0%
- Activity [4]: 0%

SMILES: c1ccc2c(-c3cnco3)c[nH]c2c1
- Activity [1]: 0%
- Activity [2]: 0%
- Activity [3]: 0%
- Activity [4]: 0%

SMILES: Brc1ncoc1-c1c[nH]c2ccccc12
- Activity [1]: 49%
- Activity [2]: 0%
- Activity [3]: 99%
- Activity [4]: 0%

SMILES: Cn1cc(-c2ocnc2Cl)c2ccccc21
- Activity [1]: 0%
- Activity [2]: 0%
- Activity [3]: 0%
- Activity [4]: 0%

SMILES: CCn1cc(-c2ocnc2Cl)c2ccccc21
- Activity [1]: 0%
- Activity [2]: 0%
- Activity [3]: 0%
- Activity [4]: 0%

SMILES: C=CCn1cc(-c2ocnc2Cl)c2ccccc21
- Activity [1]: 0%
- Activity [2]: 0%
- Activity [3]: 0%
- Activity [4]: 0%

SMILES: CC(=O)n1cc(-c2ocnc2Cl)c2ccccc21
- Activity [1]: 0%
- Activity [2]: 0%
- Activity [3]: 0%
- Activity [4]: 0%

SMILES: CCC(=O)n1cc(-c2ocnc2Cl)c2ccccc21
- Activity [1]: 0%
- Activity [2]: 0%
- Activity [3]: 0%
- Activity [4]: 0%

SMILES: CCS(=O)(=O)n1cc(-c2ocnc2Cl)c2ccccc21
- Activity [1]: 0%
- Activity [2]: 0%
- Activity [3]: 0%
- Activity [4]: 0%

SMILES: O=C(CCl)n1cc(-c2ocnc2Cl)c2ccccc21
- Activity [1]: 27%
- Activity [2]: 0%
- Activity [3]: 99%
- Activity [4]: 0%

SMILES: O=C(C(Cl)Cl)n1cc(-c2ocnc2Cl)c2ccccc21
- Activity [1]: 0%
- Activity [2]: 0%
- Activity [3]: 99%
- Activity [4]: 0%

SMILES: O=C(n1cc(-c2ocnc2Cl)c2ccccc21)C(Cl)(Cl)Cl
- Activity [1]: 0%
- Activity [2]: 0%
- Activity [3]: 99%
- Activity [4]: 0%

SMILES: CC(Cl)C(=O)n1cc(-c2ocnc2Cl)c2ccccc21 (configuration not stated)
- Activity [1]: 0%
- Activity [2]: 0%
- Activity [3]: 0%
- Activity [4]: 0%

SMILES: COC(=O)n1cc(-c2ocnc2Cl)c2ccccc21
- Activity [1]: 0%
- Activity [2]: 0%
- Activity [3]: 0%
- Activity [4]: 0%

SMILES: COCC(=O)n1cc(-c2ocnc2Cl)c2ccccc21
- Activity [1]: 0%
- Activity [2]: 0%
- Activity [3]: 0%
- Activity [4]: 0%

SMILES: CCOC(=O)Cn1cc(-c2ocnc2Cl)c2ccccc21
- Activity [1]: 49%
- Activity [2]: 0%
- Activity [3]: 0%
- Activity [4]: 0%

SMILES: CCOC(=O)C(=O)n1cc(-c2ocnc2Cl)c2ccccc21
- Activity [1]: 0%
- Activity [2]: 0%
- Activity [3]: 99%
- Activity [4]: 0%

SMILES: Fc1ccc(Cn2cc(-c3ocnc3Cl)c3ccccc32)c(F)c1
- Activity [1]: 0%
- Activity [2]: 0%
- Activity [3]: 0%
- Activity [4]: 49%

SMILES: Clc1ncoc1-c1cn(CC2CO2)c2ccccc12 (configuration not stated)
- Activity [1]: 0%
- Activity [2]: 0%
- Activity [3]: 0%
- Activity [4]: 0%

SMILES: Clc1ncoc1-c1cn(CC2CC2)c2ccccc12
- Activity [1]: 49%
- Activity [2]: 0%
- Activity [3]: 0%
- Activity [4]: 0%

SMILES: Cn1cc(-c2ocnc2Br)c2ccccc21
- Activity [1]: 49%
- Activity [2]: 0%
- Activity [3]: 0%
- Activity [4]: 0%

SMILES: CCn1cc(-c2ocnc2Br)c2ccccc21
- Activity [1]: 0%
- Activity [2]: 49%
- Activity [3]: 0%
- Activity [4]: 0%

SMILES: C=CCn1cc(-c2ocnc2Br)c2ccccc21
- Activity [1]: 49%
- Activity [2]: 0%
- Activity [3]: 0%
- Activity [4]: 0%

SMILES: ClC(Cl)=CCn1cc(-c2ocnc2Br)c2ccccc21
- Activity [1]: 0%
- Activity [2]: 0%
- Activity [3]: 0%
- Activity [4]: 0%

SMILES: CC(=O)n1cc(-c2ocnc2Br)c2ccccc21
- Activity [1]: 0%
- Activity [2]: 0%
- Activity [3]: 0%
- Activity [4]: 0%

SMILES: CCC(=O)n1cc(-c2ocnc2Br)c2ccccc21
- Activity [1]: 0%
- Activity [2]: 0%
- Activity [3]: 0%
- Activity [4]: 0%

SMILES: CCS(=O)(=O)n1cc(-c2ocnc2Br)c2ccccc21
- Activity [1]: 0%
- Activity [2]: 0%
- Activity [3]: 0%
- Activity [4]: 0%

SMILES: O=C(CCl)n1cc(-c2ocnc2Br)c2ccccc21
- Activity [1]: 99%
- Activity [2]: 0%
- Activity [3]: 99%
- Activity [4]: 0%

SMILES: O=C(C(Cl)Cl)n1cc(-c2ocnc2Br)c2ccccc21
- Activity [1]: 0%
- Activity [2]: 0%
- Activity [3]: 99%
- Activity [4]: 0%

SMILES: CC(Cl)C(=O)n1cc(-c2ocnc2Br)c2ccccc21 (configuration not stated)
- Activity [1]: 0%
- Activity [2]: 0%
- Activity [3]: 0%
- Activity [4]: 0%

SMILES: Clc1ncoc1-c1c[nH]c2ccccc12 [Streptochlorin]
- Activity [1]: 0%
- Activity [2]: 0%
- Activity [3]: 99%
- Activity [4]: 49%

From ChEMBL document CHEMBL3046856, “Synthesis and fungicidal activity of novel pimprinine analogues” (2012)
